Laboratory results taken from publication PMC4336329 (PLoS ONE, 2015).
Among all 310,000 compounds or so, about 14,000 (4.5%) showed an effect of 50% or more. The effect is printed as a negative number. The list shows a part of the results.

Target: human ether-à-go-go-related gene (hERG) potassium channel (human, UniProt Q12809)
Assay: primary screen, population patch clamp on CHO cells stably expressing hERG
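Note: peak tail current of the secondary pulse compared with the same well before compound.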

Sequence of human ether-à-go-go-related gene (hERG) potassium channel (Q12809 whole entry, looked up): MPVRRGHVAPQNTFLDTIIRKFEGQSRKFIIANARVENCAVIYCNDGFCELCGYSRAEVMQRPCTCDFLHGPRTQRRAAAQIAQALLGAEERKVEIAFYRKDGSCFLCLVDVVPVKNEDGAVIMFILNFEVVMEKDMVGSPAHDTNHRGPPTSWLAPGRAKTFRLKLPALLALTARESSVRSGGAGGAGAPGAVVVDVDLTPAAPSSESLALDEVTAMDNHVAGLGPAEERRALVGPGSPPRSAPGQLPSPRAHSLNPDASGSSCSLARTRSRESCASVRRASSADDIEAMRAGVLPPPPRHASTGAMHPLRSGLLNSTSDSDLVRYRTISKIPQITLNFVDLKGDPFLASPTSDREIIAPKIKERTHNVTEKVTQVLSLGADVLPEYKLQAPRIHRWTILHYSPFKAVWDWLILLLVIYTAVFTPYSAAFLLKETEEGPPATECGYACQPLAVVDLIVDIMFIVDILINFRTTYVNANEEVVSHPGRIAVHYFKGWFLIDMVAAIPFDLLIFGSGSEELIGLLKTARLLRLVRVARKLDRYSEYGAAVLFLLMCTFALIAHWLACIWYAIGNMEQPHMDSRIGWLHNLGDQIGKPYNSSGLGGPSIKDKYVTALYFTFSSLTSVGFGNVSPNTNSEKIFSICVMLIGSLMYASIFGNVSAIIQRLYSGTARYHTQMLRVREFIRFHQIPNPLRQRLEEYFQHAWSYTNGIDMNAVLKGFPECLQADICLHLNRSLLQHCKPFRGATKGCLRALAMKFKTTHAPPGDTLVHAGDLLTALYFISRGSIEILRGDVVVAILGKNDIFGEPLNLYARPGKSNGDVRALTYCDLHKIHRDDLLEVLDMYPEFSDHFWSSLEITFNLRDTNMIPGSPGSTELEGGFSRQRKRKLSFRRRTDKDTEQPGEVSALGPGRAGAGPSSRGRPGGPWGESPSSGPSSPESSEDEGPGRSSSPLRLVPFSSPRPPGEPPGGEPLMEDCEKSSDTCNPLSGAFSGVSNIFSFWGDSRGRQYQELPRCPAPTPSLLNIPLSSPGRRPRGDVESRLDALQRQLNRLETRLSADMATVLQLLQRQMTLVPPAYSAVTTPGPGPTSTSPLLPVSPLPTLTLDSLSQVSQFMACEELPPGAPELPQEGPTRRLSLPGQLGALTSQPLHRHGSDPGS

Row | SMILES | hERG current change (%, negative = inhibition) at 10uM
1 | O=C(Cc1ccccc1)N1CCN(C(=O)c2cccs2)CC1 | 6.2%
2 | CC1CCN(CC(=O)Nc2ccc(C(=O)N3CCCCC3)cc2)CC1.O=C(O)C(=O)O | 5.71%
3 | CC12CCC(=O)N1C(C(=O)OCC(=O)Nc1ccc(C(F)(F)F)cc1)CS2 (stereo not drawn) | -15.5%
4 | O=C(O)c1cccc(OCCN2CCCC2=O)c1 | 11.5%
5 | S=C(Nc1ccc2nc(-c3ccccn3)c(-c3ccccn3)nc2c1)N1CCOCC1 | -69.6%
6 | O=C(OCC(=O)N(CCc1ccccc1)Cc1ccccc1)c1cc(S(=O)(=O)N2CCOCC2)ccc1F | -10.8%
7 | Cc1ccc2nc(SCc3nc4cc(Cl)ccc4c(=O)[nH]3)[nH]c2c1 | -30.1%
8 | O=C(Nc1ccccc1)c1cccc2c(Br)cccc12 | 14.9%
9 | O=C(c1cc(Br)c(Br)s1)N1CCN(C/C=C/c2ccccc2)CC1 | 2%
10 | Cc1ccc(NC(=O)CCN2CC(C)OC(C)C2)cc1.Cl (stereo not drawn) | 3.19%
11 | CCC(NC(=O)CCC(=O)N1CCN(S(=O)(=O)c2ccc(C)cc2)CC1)c1ccc(C)cc1 (stereo not drawn) | -9.41%
12 | Cc1ccccc1COc1cccc(/C=N/NC(=O)c2nnn(-c3nonc3N)c2C)c1 | 21.3%
13 | O=C(Nc1ccccc1)OCCOc1ccccc1 | -17.8%
14 | CCCCOc1cc(CC2CNC(=O)N2)ccc1OC (stereo not drawn) | -2.83%
15 | COC(=O)c1ccc(NC(=S)NC(=O)c2c(-c3ccccc3)noc2C)cc1 | 21.2%
16 | Cc1ccc(OC(=O)c2c(C)nn(-c3ccccc3)c2C)cc1 | -5.09%
17 | O=C(NCCc1cccs1)C1CCC(=O)N(CCc2cccc(F)c2)C1 (stereo not drawn) | -26.1%
18 | COc1ccc(OC)c(NC(=O)NNC(=O)CCCOc2ccc(Cl)cc2C)c1 | -23.7%
19 | CC(=O)c1cccc(S(=O)(=O)NCCC(=O)Nc2ccc(S(N)(=O)=O)cc2)c1 | 23.1%
20 | COc1ccc(/C=C2\C(=O)NC(=S)N2C(=O)c2ccc(F)cc2)cc1 | 4.05%
21 | N#CC1(NC(=O)COC(=O)c2ccccc2SCC(=O)N2CCCC2)CCCCC1 | -0.58%
22 | O=C1C2C3C=CC(C3)C2C(=O)N1CNc1ccccn1 (stereo not drawn) | 1.53%
23 | C=C(C(=O)c1ccccc1)C(c1ccccc1)C(C)C(=O)c1ccccc1 (stereo not drawn) | 6.55%
24 | NC(=O)c1c(C(F)(F)F)cc(-c2ccccc2)nc1NCCO | 9.65%
